Target: BoNT/B2 (Clostridium botulinum)
Experiment: flow cytometry, yeast-displayed scFv, soluble toxin

B1: B6.1 scFv (scFv)
scFv: QVQLVQSGAEVKKPGESLVISCKASGDKDTFTSFWIAWVRQMPGKGLEWMGIIYAGDSDTRYSPSFQGHVNISVDRSTNTAYLQWSSLKASDTAMYYCARHDSRYKYFYFGMDVWGQGTTVTVSSGGGGSGGGGSGGGGS[gap - about 100 residues]PYTFGQGTKLEIK
Kd: 0.394 nM

Source: patent publication US20150197559A1
